Consider 2 molecules from publication PMC4822137, “Proteasomes generate spliced epitopes by two different mechanisms and as efficiently as non-spliced epitopes” (Scientific Reports, 2016).

Test [1] has as its system HeLa cells / K631 1C CTL clone. Description: CTL assay (IFN-γ ELISA), presentation by transfected HeLa cells. For orientation: An ELISA detects its analyte on a solid surface through an enzyme-linked reagent.
For test [2], the system named is HLA-A*03:01 complex on the cell surface of HeLa. The test is described as follows: HLA-A*03:01-peptide binding affinity by flow cytometry, HeLa cells. To be noted: HLA-A*03:01-transfected HeLa, pulsed with 100 μM peptide, FACS (MFU). Details: species or system human. On the technique in general: Flow cytometry measures light scatter and fluorescence of single cells or particles in a stream.

Test [3] deals with HLA-A*03:01 complex on the cell surface of T2 (Homo sapiens, UniProt P04439). The test is described as follows: HLA-A*03:01-peptide binding affinity by flow cytometry, T2 cells. The note with it: HLA-A*03:01-transfected T2, different peptide concentrations, FACS (MFU).

As for `CC[C@H](C)[C@H](NC(=O)[C@H]([C@@H](C)CC)N(C)C(C)=O)C(=O)N[C@H](C(=O)N[C@@H](CC(C)C)C(=O)[C@@]1(C)CO1)[C@@H](C)O` [epoxomicin, reference compound], the “effect on gp100mel47–52/40–42 presentation, epoxomicin” value in test [1] (epoxomicin 250 nM, 2 hrs, E:T 1:1 p = 0.002, 2:1 p = 0.001, 4:1 and 8:1 p < 0.001) is reported as “Significant differences”.
As for [QLYPEW][RTK] [gp100^mel47–52/40–42], in test [2], the “binding to HLA-A*03:01 complex on HeLa” value is listed as “bound the HLA-A*03:01 complex”. The “binding to HLA-A*03:01 complex on T2” value in test [3] is “bound the HLA-A*03:01 complex”. In addition, in test [1] (HeLa HLA-A*03:01+ transfected with HA-Ub/gp100mel40–52, K631 1C CTL, IFN-γ ELISA, E:T 1:1 p = 0.003, 2:1 p = 0.050), the “condensation in cellulo / presentation from HA-Ub/gp100mel40–52” value is reported as “proteasomes could indeed also perform a condensation reaction in cellulo”. Also, the “presentation from full-length gp100mel, HeLa” value in test [1] (HeLa transfected with HLA-A*03:01 and gp100mel-myc/His, proteasome-dependent) is “efficiently presented”.
